The source gives no read counts; variants with many changes may rest on few reads.
B1: LINE1-mini (parent)
chain: GGCAGAGCUCAACACAGCGUGGCAAAGUGGCUGUGGCUAGACUGCC

Variants of: B1
Assay: self-cleavage, relative activity (ratio to wild type); higher = more cleavage; in vitro, sequencing; the parent is a self-cleaving ribozyme

Variant	self-cleavage
A12U A14C C15A G21A	0.03
A11U C18U A26C U43A	0
A12C U32G A39U G40A	0
A12G U20C A26C G27U G30C G36U C46U	0.02
A11U A14U G35C	0.02
A12G C13A G17U C23A	0.03
A11U U38C A41U	0.01
A12C C23G A26C	0.01
A12C C13U A24U G44A	0
A12G U20C C31U C45A	0.03
A11U A14U U20A C31U C46A	0.03
A12C G17U C18A	0.01
A12C C15U G19C G33A G44U	0.01
A12U A25C G30A	0.5
A12G A41U C42G C45A	0.04
A11U A24C G35C C45U	0.01
A11U A26U U32A C42U	0
A11U G19C C46A	0.57
A12C A14C G35C A41C	0.02
A12C G40A A41G	0.04
A12U A16U C23A G30A	0
A11U A26C G29U	0.09
A12G G17U C23G A26G G30U	0
A11U G29U A39U	0.03

Variant	self-cleavage
A12C G17A C18A A24U U32G	0.01
A12C U28C G36A G40U C42G	0.2
A11U C13U C18U	0.05
A12C C18A A24G C42U	0
A12U A14U U34C C37G	0.02
A12G A16C C23A G27A	0.03
A12G C37U G44A C45U	0.03
A12G C31A C42U	0.07
A12G G33C C45A	0.01
A12C C15A U28A G44U	0.01
A12U A14U G17U	0.05
A11U A14U G17C A26U	0
A12C A14C C18A U43G	0.03
A11U G22A C31A U32C	0.01
A12G U28C G35A	0.01
A11U C15A G35C G40U	0.02
A12G G17A A25G C37G C46A	0.01
A11U C18A G21U G30C C31G G40C	0
A12G C15A A24G U28C G44C	0.01
A11U C18A C42U	0.05
A11U G17A U34C	0
A11U A39U C42A	0
A12G C13A C18G U28A G29C G35A	0.03
A12G A26C C37A C45A	0.1

Variant	self-cleavage
A12C C18G A24G	0.02
A12C A14C G17C C23A U34C C37U G40A G44U	0
A12C U20C G21C U32G C45A	0.01
A12U A24G U28C	0.22
A12G G19A G21C U28G	0.01
A12G A14U C42U G44A C46U	0
A12G U34C G36U	0.02
A12C G30U C37U C46A	0.01
A11U U28A G29A U34C C42U	0.01
A12G C15G A16G	0.4
A12G G22U G40C	0
A12G G40U C46G	0.01
A12C A24C G30C C46U	0.01
A12C A16U G17U	0.02
A11U A14C C18U U28G G29C G35C U43G	0
A12G G22C U32C G40C	0.02
A11U G21C G33U	0.05
A12G A26C A41U C46A	0.07
A12C G35C C37G C45G	0
A12G G22C G29U	0.01
A11U U32G U38G C46G	0
A11U G22A G33C G35U C42U	0.01
A12G A14C U20G G35C C46A	0.02
A11U G33U G35A G36C C45G	0.01

Variant	self-cleavage
A12G G33A G36U	0.14
A12G C15U U28G	0.02
A11U C15G A16G	0.02
A11U C13G C18A	0.03
A11U A16C U38G	0.02
A11U A26C U34C C42A C46A	0.05
A12G G19U G21U U32C G40U C45A	0.02
A11U G17U C31U C46A	0.01
A12G A26G U43C	0.04
A12C G30U G40A	0.01
A11U C15A A25G A39C	0.01
A12U A16G A25C G36A	0.01
A12C G30C A41C	0.01
A12C U20G C45G	0.06
A11U C13U A14U G19A	0.01
A11U A26G G35C	0.02
A11U C15U C18G C23A U28A A41G	0.02
A12C C15A G33U	0.02
A12U A25U U34A G36C A39G	0
A11U G22U G29C A39C	0.02
A12U A14U A39C U43A C46U	0.04
A12G A16G G35U	0.04
A12G A14C G22U	0.03
A12C C13A C46A	0.02

Variant	self-cleavage
A11U A14G C23G	0.05
A12C G27A G44A	0.01
A11U A14G C15A G35C	0.01
A11U C15G G19A G29U G44C C46A	0.02
A11U U34A G35C	0.03
A12G U20C G27U	0.02
A12C G21C G33C C45G	0
A11U G40U U43A	0
A11U U34G C45G	0.01
A12C G27A C46G	0.02
A12C G17U G44C	0.04
A12C C15A U34A C46A	0.03
A12C A25U A26C	0.02
A12G A14C G21U	0.02
A12G C13A G29C	0.02
A12G A14C C18U U43A	0.05
A12C G35A G44U	0.01
A12G C23G A26U G29A U32G U34G	0.01
A11U G27A A39C U43C	0.01
A12G C18A A41G U43A	0.04
A12U A14G C42G G44U	0.03
A11U A24U G33C G35U	0.01
A12C G19U U20C G33A	0.02
A12G C42A G44U	0

Variant	self-cleavage
A11U U20G G21U C37U	0
A12C A26C G44C	0.02
A12C C18G G35A U43G G44A	0
A12C U32A U34A	0.01
A12C A14C G21A U28G G29C	0
A11U G27A U28G C46A	0.02
A12G G21A G22A A24G G30U U34G	0.02
A11U G17U A39G C45G	0.01
A12C C15A G19C G21C	0.01
A11U A25G C37U	0
A12G G33C G40U	0.03
A12G G22U G35C	0.03
A12C C31U G40C	0
A12G C15A A16U G29C C46A	0.09
A11U C15A G17U C31G	0.03
A12C A25G C37A	0
A12G C31U C42G C45U	0.01
A12C G17C U28C G30U	0.03
A12C C45A C46A	0.03
A12U A14C G29C C42G	0
A11U G33A C42U	0.01
A11U C18A C46A	0
A12C C13A G27C U38A	0.02
A12G G44A C45A	0.04

Variant	self-cleavage
A11U A25U U28C C31U C46A	0.08
A12C C23U G40U C42U	0.04
A11U C13G C15G U32C	0.01
A11U G17U G33U U38A	0.02
A12C C13G A14U G22U	0.03
A12U A14C G22U	0.04
A12G G19A U20A A26U	0.01
A12G G17C G21C	0.01
A12G C13A G22C U32A C37A C42A U43G	0.26
A12C G29C U32A U34A	0
A11U A26G G29C	0.04
A11U C23U A24G A25U C42U	0.04
A12C G22A A25C	0
A12G A24C A26G C37A C45A	0.01
A12U A24G G44U	0.11
A12C G19C G21A	0.01
A12G C18U U28A	0.06
A12U A14G G40A	0.07
A12G G19A C31U	0.01
A12G C31U U38C C42A	0.05
A12C G27C G36U	0.01
A12G G17U U34A C42A	0.01
A12G C15U U32G G35C U43C	0.04

Reference: the RNAGym collection of RNA variant scans (doi:10.7554/elife.90254)
